Results published in the supplement of paper PMC9446081.
The campaign covered roughly 39,000 compounds. About 220 (0.56%) showed activity. The list shows a part of the results.
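Note: static incubation at 37 °C against the wild-type strain, values averaged over two biological replicates.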

The molecules below were run on Escherichia coli K-12 BW25113 (assay: relative growth (OD600 normalised to plate interquartile mean) (fraction); higher = less growth inhibition, active = 0.2 or less). Conditions: 50 µM; LB; incubation time: overnight (16-24 h).
In the case of `O=C([C@@H]1[C@@H](CO)[C@@H]2Cn3c(cccc3=O)[C@@H]2N1C(=O)C1CCCC1)N1CCOCC1`, the relative growth is reported as inactive: 0.994.
For `CC(/C=C/C(=O)NO)=C\c1ccccc1OCc1cn(-c2cccc(N(S(=O)(=O)c3ccc(C)cc3)S(=O)(=O)c3ccc(C)cc3)c2)nn1`, the relative growth was inactive: 1.03.
`C[C@H]1CCCCO[C@H](CN(C)Cc2ccccc2)[C@@H](C)CN([C@@H](C)CO)C(=O)c2cc(NC(=O)C3CCCCC3)ccc2O1` was tested, and the relative growth was inactive: 1.04.
`C[C@@H]1CCCCO[C@@H](CN(C)S(=O)(=O)c2ccc(Cl)cc2)[C@@H](C)CN([C@H](C)CO)C(=O)c2cc(NC(=O)c3ccccc3)ccc2O1` was tested, and the relative growth was inactive: 1.01.
In the case of `Cc1noc(C)c1NC(=O)Nc1ccc2c(c1)CC(=O)N([C@@H](C)CO)C[C@H](C)[C@H](CN(C)Cc1ccc(Cl)c(Cl)c1)O2`, the relative growth is reported as inactive: 0.867.
With `Cc1noc(C)c1NC(=O)Nc1cccc2c1O[C@H](CN(C)C(=O)NC(C)C)[C@H](C)CN([C@H](C)CO)C2=O` the relative growth was inactive: 1.03.
In the case of `O=C(C[C@@H]1C=C[C@@H](NS(=O)(=O)c2ccc(F)cc2)[C@H](CO)O1)NCCN1CCCCC1`, the relative growth is reported as inactive: 0.993.
In the case of `CNC[C@@H]1OCCCC[C@H](C)Oc2ccc(NS(=O)(=O)c3c(C)noc3C)cc2C(=O)N([C@@H](C)CO)C[C@@H]1C`, the relative growth is reported as inactive: 0.981.
In the case of `COCC(=O)Nc1ccc2c(c1)OC[C@H](C)N(Cc1ccccc1OC)C[C@@H](C)[C@@H](OC)CN(C)C2=O`, the relative growth is reported as inactive: 1.01.
In the case of `COc1ccccc1CN1C(=O)c2ccccc2[C@](Cc2ccccc2I)(C(=O)NCC(C)C)[C@@H]1c1ccc(CO)cc1`, the relative growth is reported as inactive: 0.987.
For `C[C@@H]1CN([C@H](C)CO)C(=O)c2cc(NC(=O)Cc3ccccc3)ccc2O[C@@H]1CN(C)S(=O)(=O)c1cccs1`, the relative growth was inactive: 0.987.
With `Cc1cccc(S(=O)(=O)N2C[C@H](O)COC[C@@H]3O[C@@H](CC(=O)NCCCN4CCOCC4)CC[C@H]32)c1` the relative growth was inactive: 1.
With `COc1ccc(CN(C)C[C@@H]2OCCCC[C@H](C)Oc3ccc(NS(=O)(=O)c4ccc(Cl)cc4)cc3C(=O)N([C@@H](C)CO)C[C@@H]2C)cc1` the relative growth was inactive: 0.942.
With `O=C1CN(S(=O)(=O)Cc2ccccc2)C[C@H]2[C@@H](c3ccc(C#Cc4ccc(F)cc4)cc3)[C@@H](CO)N12` the relative growth was inactive: 1.04.
`O=C(O)C[C@@H]1C=C[C@@H](NC(=O)c2ccncc2)[C@H](CO)O1` was tested, and the relative growth was inactive: 0.995.
With `CC(=O)N1C[C@@H](NC(=O)c2nccn2C)[C@@H]2OCCC[C@@H]21` the relative growth was inactive: 0.973.
For `CC(C)(C)[S@@](=O)N1Cc2cc(C(=O)NC3CCC3)nc(-c3cccc(-c4ccccc4F)c3)c2[C@H]1CCO`, the relative growth was inactive: 1.04.
In the case of `CC[N+](CC)(CC)CCOc1ccc(C=Cc2ccccc2)cc1`, the relative growth is reported as inactive: 0.983.
In the case of `C[C@H](CO)N1C[C@H](C)[C@@H](CN(C)S(=O)(=O)c2ccc(F)cc2)Oc2c(NS(=O)(=O)c3ccccc3)cccc2C1=O`, the relative growth is reported as inactive: 0.992.
`CC(C)NC(=O)N(C)C[C@H]1Oc2ccc(NC(=O)Nc3ccc4c(c3)OCO4)cc2C(=O)N([C@@H](C)CO)C[C@H]1C` was tested, and the relative growth was inactive: 0.977.
With `C[C@H](CO)N1C[C@H](C)[C@@H](CN(C)C(=O)C2CCCCC2)Oc2cc(-c3cncnc3)ccc2S1(=O)=O` the relative growth was inactive: 0.987.
`NCC[C@H]1CC[C@@H](NC(=O)C2CC2)[C@H](CO)O1` was tested, and the relative growth was inactive: 0.989.
`CCS(=O)(=O)Nc1ccc2c(c1)C(=O)N(C)[C@H]1CC[C@H](CC(=O)N[C@H]3CCN(Cc4ccccc4)C3)O[C@@H]1CO2` was tested, and the relative growth was inactive: 1.01.
In the case of `C[C@@H]1CN([C@@H](C)CO)C(=O)Cc2cc(NC(=O)c3ccncc3)ccc2O[C@@H]1CN(C)S(=O)(=O)c1ccc(F)cc1`, the relative growth is reported as inactive: 1.01.
In the case of `O=C(O)C[C@@H]1C=C[C@H](NC(=O)c2ccncc2)[C@@H](CO)O1`, the relative growth is reported as inactive: 1.02.
`O=C(CN1CCOCC1)N[C@H]1CC[C@H](CCNS(=O)(=O)c2ccccc2F)O[C@H]1CO` was tested, and the relative growth was inactive: 0.999.
For `COc1ccccc1C#Cc1ccc2c(c1)O[C@H](CN(C)Cc1cccnc1)[C@@H](C)CN([C@@H](C)CO)S2(=O)=O`, the relative growth was inactive: 1.03.
`C/N=C1\S[C@@H](CC(=O)NC(C)C)C(=O)N1C` was tested, and the relative growth was inactive: 0.997.
In the case of `Cn1c(=O)cnn(CCCCN2CCN(c3ncccn3)CC2)c1=O`, the relative growth is reported as inactive: 0.987.
For `C[C@@H]1CN([C@H](C)CO)C(=O)c2cc(NS(=O)(=O)c3ccc(Cl)cc3)ccc2O[C@@H]1CN(C)Cc1ccc(Cl)c(Cl)c1`, the relative growth was inactive: 0.98.
`CCC(=O)Nc1cnc(OC)nc1OC` was tested, and the relative growth was inactive: 1.01.
`C[C@@H]1CCCCO[C@@H](CN(C)C(=O)Nc2cccc3ccccc23)[C@H](C)CN([C@@H](C)CO)C(=O)c2cc(N(C)C)ccc2O1` was tested, and the relative growth was inactive: 1.01.
`C[C@@H]1CN([C@H](C)CO)S(=O)(=O)c2ccc(-c3ccccc3F)cc2O[C@@H]1CN(C)Cc1cncnc1` was tested, and the relative growth was inactive: 1.01.
In the case of `C[C@@H]1CCCCO[C@@H](CN(C)Cc2ccc(C(=O)O)cc2)[C@H](C)CN([C@H](C)CO)C(=O)c2cc(NC(=O)Nc3ccc4c(c3)OCO4)ccc2O1`, the relative growth is reported as inactive: 0.99.
With `CCS(=O)(=O)N[C@@H]1CC[C@@H](CC(=O)NCc2ccccn2)O[C@@H]1CO` the relative growth was inactive: 0.975.
For `c1ccc(-c2ccc(C(c3ccccc3)n3ccnc3)cc2)cc1` (stereo not drawn), the relative growth was inactive: 0.953.
With `Oc1c(Cl)cc(Cl)c2cccnc12` the relative growth was active: 0.111.
In the case of `COCC#Cc1ccc2c(c1)O[C@@H](CN(C)Cc1ccccc1F)[C@@H](C)CN([C@H](C)CO)S2(=O)=O`, the relative growth is reported as inactive: 1.03.
`C[C@@H]1CN([C@@H](C)CO)C(=O)CCCn2cc(nn2)CO[C@H]1CN(C)C(=O)Nc1ccccc1C(F)(F)F` was tested, and the relative growth was inactive: 1.02.
In the case of `C[C@H](CO)N1C[C@H](C)[C@@H](CN(C)Cc2ccc(F)cc2)Oc2cc(C#CC3CC3)ccc2S1(=O)=O`, the relative growth is reported as inactive: 0.938.
For `C[C@@H]1CN([C@H](C)CO)C(=O)c2cc(NC(=O)CCCN(C)C)ccc2O[C@H]1CN(C)S(=O)(=O)c1cn(C)cn1`, the relative growth was inactive: 1.01.
With `COc1ccc2c3c([nH]c2c1)[C@H](CO)N(C[C@]13CCN(CC1)C(=O)c1ccccc1F)C(=O)Nc1ccccc1F` the relative growth was inactive: 1.01.
For `COCC(=O)Nc1ccc2c(c1)OC[C@@H](C)N(Cc1ccccc1OC)C[C@H](C)[C@@H](OC)CN(C)C2=O`, the relative growth was inactive: 0.985.
With `COc1ccccc1C(=O)Nc1ccc2c(c1)C(=O)N(C)[C@@H]1CC[C@@H](CC(=O)NCCc3ccncc3)O[C@H]1CO2` the relative growth was inactive: 1.01.
With `C[C@@H]1CN([C@@H](C)CO)C(=O)Cc2cc(NC(=O)C3CC3)ccc2O[C@H]1CN(C)Cc1ccc(C(=O)O)cc1` the relative growth was inactive: 1.
`C[C@H](CO)N1C[C@H](C)[C@@H](CN(C)S(C)(=O)=O)Oc2c(NC(=O)NC3CCCCC3)cccc2C1=O` was tested, and the relative growth was inactive: 0.993.
In the case of `C[C@@H]1CCCCO[C@@H](CN(C)S(=O)(=O)c2ccc(Cl)cc2)[C@H](C)CN([C@@H](C)CO)C(=O)c2cc(NC(=O)Nc3cccc4ccccc34)ccc2O1`, the relative growth is reported as inactive: 1.05.
For `CC(=O)O[C@H]1C[C@@H](OC(C)=O)C(C)(C)[C@@H]2C[C@@H](OC(C)=O)[C@@]3(C)C4=CC(=O)O[C@@H](c5ccoc5)[C@]4(C)CC[C@@H]3[C@@]12C`, the relative growth was inactive: 1.02.
In the case of `Cc1cc(C(=O)Nc2cccc3c2O[C@H](CN(C)C(=O)NC2CCCCC2)[C@@H](C)CN([C@@H](C)CO)C3=O)n(C)n1`, the relative growth is reported as inactive: 1.01.
For `CNC[C@@H](O)CS(=O)(=O)c1ccccc1`, the relative growth was inactive: 1.01.
`O=C1N[C@@H]2[C@@H]1[C@H]1C=C[C@H]2C1` was tested, and the relative growth was inactive: 0.974.
With `COCC(=O)N(C)C[C@@H]1Oc2cc(C#Cc3ccccc3)ccc2S(=O)(=O)N([C@@H](C)CO)C[C@H]1C` the relative growth was inactive: 0.903.
For `COc1ccc(S(=O)(=O)N(C)C[C@H]2Oc3ccc(NS(=O)(=O)c4cn(C)cn4)cc3CC(=O)N([C@H](C)CO)C[C@@H]2C)cc1`, the relative growth was inactive: 0.996.
For `C[C@@H]1CN([C@H](C)CO)C(=O)Cc2cc(NC(=O)Nc3ccc(C(F)(F)F)cc3)ccc2O[C@H]1CN(C)C(=O)Nc1ccccc1`, the relative growth was inactive: 1.06.
In the case of `C[C@H](CO)N1C[C@H](C)[C@@H](CN(C)Cc2ccc(Cl)c(Cl)c2)Oc2ccc(NS(=O)(=O)c3ccccc3)cc2C1=O`, the relative growth is reported as inactive: 1.01.
In the case of `Cc1cc(C(=O)Nc2cccc3c2O[C@H](CN(C)S(=O)(=O)c2cccs2)[C@H](C)CN([C@@H](C)CO)C3=O)n(C)n1`, the relative growth is reported as inactive: 1.01.
For `Cc1noc(C)c1NC(=O)Nc1cccc2c1O[C@H](CN(C)C(=O)Nc1cccc3ccccc13)[C@H](C)CN([C@@H](C)CO)C2=O`, the relative growth was inactive: 0.948.
`C[C@H]1CN([C@@H](C)CO)C(=O)c2cc(-c3cccc(C#N)c3)cnc2O[C@@H]1CN(C)C(=O)c1cnccn1` was tested, and the relative growth was inactive: 1.02.
In the case of `Cc1cc([N+](=O)[O-])nn1CC(=O)N1CCOCC1`, the relative growth is reported as inactive: 1.01.
In the case of `C[C@H](CO)N1C[C@H](C)[C@@H](CN(C)C(=O)C2CC2)Oc2ncc(-c3ccc(C(=O)N(C)C)cc3)cc2C1=O`, the relative growth is reported as inactive: 0.995.
For `C[C@@H]1CN([C@H](C)CO)C(=O)c2cc(NC(=O)Nc3ccc4c(c3)OCO4)ccc2O[C@@H]1CN(C)Cc1ccc(Cl)c(Cl)c1`, the relative growth was inactive: 0.996.
`C[C@@H]1CCCCO[C@H](CN(C)C(=O)Nc2ccc(C(F)(F)F)cc2)[C@@H](C)CN([C@@H](C)CO)C(=O)c2cc(NS(=O)(=O)c3ccccc3)ccc2O1` was tested, and the relative growth was inactive: 0.982.
With `C[C@H]1CN([C@@H](C)CO)C(=O)c2cccc(NC(=O)Nc3ccccc3)c2O[C@H]1CN(C)Cc1ccc(Oc2ccccc2)cc1` the relative growth was inactive: 1.04.
